# Measured values taken from the supplement of paper PMC9927326.
# MIC of clinical C. albicans isolates, CLSI broth microdilution (ranges and time not stated); higher = less susceptible. Call: susceptible or wild type [S] / resistant or non-wild type [R] by CLSI breakpoints or epidemiological cut-offs; intermediate and dose-dependent carry no call here (the paper groups them with resistant). '<=' and '>=' mark each drug's lowest and highest value, inferred; the source prints them plain. Isolates are numbered anew.
# Key:
# Assay in all cases: CLSI broth microdilution.
# [1] = compound: CC[C@H](C)C[C@H](C)CCCCCCCCC(=O)N[C@H]1C[C@@H](O)[C@@H](NCCN)NC(=O)[C@@H]2[C@@H](O)CCN2C(=O)[C@H]([C@H](O)CCN)NC(=O)[C@H]([C@H](O)[C@@H](O)c2ccc(O)cc2)NC(=O)[C@@H]2C[C@@H](O)CN2C(=O)[C@H]([C@@H](C)O)NC1=O [caspofungin]
# [2] = compound: C[C@@H](c1ncncc1F)[C@](O)(Cn1cncn1)c1ccc(F)cc1F [voriconazole]
# [3] = compound: CCCCCOc1ccc(-c2ccc(-c3ccc(C(=O)N[C@H]4C[C@@H](O)[C@@H](O)NC(=O)[C@@H]5[C@@H](O)[C@@H](C)CN5C(=O)[C@H]([C@@H](C)O)NC(=O)[C@H]([C@H](O)[C@@H](O)c5ccc(O)cc5)NC(=O)[C@@H]5C[C@@H](O)CN5C(=O)[C@H]([C@@H](C)O)NC4=O)cc3)cc2)cc1 [anidulafungin]
# [4] = compound: OC(Cn1cncn1)(Cn1cncn1)c1ccc(F)cc1F [fluconazole]
# [5] = compound: C[C@@H]1[C@H](O)[C@@H](C)/C=C/C=C/C=C/C=C/C=C/C=C/C=C/[C@H](O[C@@H]2O[C@H](C)[C@@H](O)[C@H](N)[C@@H]2O)C[C@@H]2O[C@](O)(C[C@@H](O)C[C@@H](O)[C@H](O)CC[C@@H](O)C[C@@H](O)CC(=O)O[C@H]1C)C[C@H](O)[C@H]2C(=O)O [amphotericin B]
# [6] = compound: CC[C@@H]([C@H](C)O)n1ncn(-c2ccc(N3CCN(c4ccc(OC[C@@H]5CO[C@@](Cn6cncn6)(c6ccc(F)cc6F)C5)cc4)CC3)cc2)c1=O [posaconazole]
# [7] = compound: CCCCCOc1ccc(-c2cc(-c3ccc(C(=O)N[C@H]4C[C@@H](O)[C@@H](O)NC(=O)[C@@H]5[C@@H](O)[C@@H](C)CN5C(=O)[C@H]([C@H](O)CC(N)=O)NC(=O)[C@H]([C@H](O)[C@@H](O)c5ccc(O)c(OS(=O)(=O)O)c5)NC(=O)[C@@H]5C[C@@H](O)CN5C(=O)[C@H]([C@@H](C)O)NC4=O)cc3)no2)cc1 [micafungin]
# [8] = compound: CCC(C)n1ncn(-c2ccc(N3CCN(c4ccc(OCC5COC(Cn6cncn6)(c6ccc(Cl)cc6Cl)O5)cc4)CC3)cc2)c1=O [itraconazole]
# [9] = compound: Nc1[nH]c(=O)ncc1F [flucytosine]
Test System,MIC [1],MIC [2],MIC [3],MIC [4],MIC [5],MIC [6],MIC [7],MIC [8],MIC [9]
"Candida albicans isolate 238 (Erg11p: G129A, Fur1p: WT, Tac1p: R869Q,L695F,I558V,A377V,F189S,M170V,L131I)",0.015 mg/L [S],≤ 0.008 mg/L [S],≤ 0.015 mg/L [S],0.5 mg/L [S],0.25 mg/L [S],≤ 0.008 mg/L [S],0.015 mg/L [S],≤ 0.015 mg/L [S],≤ 0.06 mg/L [S]
"Candida albicans isolate 12 (Erg11p: WT, Fur1p: WT, Tac1p: N896S)",0.03 mg/L [S],≤ 0.008 mg/L [S],0.06 mg/L [S],0.25 mg/L [S],0.25 mg/L [S],0.015 mg/L [S],0.015 mg/L [S],0.03 mg/L [S],≤ 0.06 mg/L [S]
"Candida albicans isolate 98 (Erg11p: E266D, Fur1p: WT, Tac1p: C908Y,A377V,N174D,M170I,I109N,K87N)",0.03 mg/L [S],≤ 0.008 mg/L [S],≤ 0.015 mg/L [S],0.5 mg/L [S],0.5 mg/L [S],0.015 mg/L [S],0.015 mg/L [S],0.03 mg/L [S],≤ 0.06 mg/L [S]
"Candida albicans isolate 216 (Erg11p: D153E, Fur1p: WT, Tac1p: N896S)",0.06 mg/L [S],≤ 0.008 mg/L [S],0.12 mg/L [S],0.5 mg/L [S],0.5 mg/L [S],0.03 mg/L [S],0.015 mg/L [S],0.06 mg/L [S],≤ 0.06 mg/L [S]
"Candida albicans isolate 277 (Erg11p: G465S,Y132H, Fur1p: R101C, Tac1p: WT)",0.03 mg/L [S],0.12 mg/L [S],0.03 mg/L [S],1 mg/L [S],0.5 mg/L [S],0.015 mg/L [S],0.03 mg/L [S],≤ 0.015 mg/L [S],0.5 mg/L [S]
"Candida albicans isolate 62 (Erg11p: E266D,G129A, Fur1p: WT, Tac1p: R869Q,L695F,I558V,A377V,F189S,M170V,L131I)",0.03 mg/L [S],0.015 mg/L [S],≤ 0.015 mg/L [S],1 mg/L [S],0.5 mg/L [S],0.06 mg/L [S],0.015 mg/L [S],0.12 mg/L [S],≤ 0.06 mg/L [S]
"Candida albicans isolate 159 (Erg11p: WT, Fur1p: WT, Tac1p: N896S)",0.015 mg/L [S],≤ 0.008 mg/L [S],≤ 0.015 mg/L [S],0.25 mg/L [S],0.5 mg/L [S],0.015 mg/L [S],≤ 0.008 mg/L [S],0.03 mg/L [S],≤ 0.06 mg/L [S]
"Candida albicans isolate 152 (Erg11p: G465S,Y132H, Fur1p: R101C, Tac1p: WT)",0.03 mg/L [S],0.12 mg/L [S],≤ 0.015 mg/L [S],2 mg/L [S],0.5 mg/L [S],0.015 mg/L [S],0.015 mg/L [S],0.06 mg/L [S],0.5 mg/L [S]
"Candida albicans isolate 130 (Erg11p: E266D, Fur1p: WT, Tac1p: N896S,I558V,A377V,M170V)",0.03 mg/L [S],≤ 0.008 mg/L [S],0.06 mg/L [S],0.5 mg/L [S],0.5 mg/L [S],0.015 mg/L [S],≤ 0.008 mg/L [S],0.03 mg/L [S],≤ 0.06 mg/L [S]
"Candida albicans isolate 240 (Erg11p: D153E, Fur1p: WT, Tac1p: N896S)",0.03 mg/L [S],≤ 0.008 mg/L [S],0.06 mg/L [S],0.25 mg/L [S],0.5 mg/L [S],0.03 mg/L [S],0.015 mg/L [S],0.03 mg/L [S],0.12 mg/L [S]
"Candida albicans isolate 44 (Erg11p: WT, Fur1p: WT, Tac1p: N896S)",0.03 mg/L [S],≤ 0.008 mg/L [S],0.03 mg/L [S],0.5 mg/L [S],0.25 mg/L [S],0.015 mg/L [S],0.015 mg/L [S],0.03 mg/L [S],≤ 0.06 mg/L [S]
"Candida albicans isolate 81 (Erg11p: WT, Fur1p: R101C, Tac1p: WT)",0.03 mg/L [S],≤ 0.008 mg/L [S],0.06 mg/L [S],0.25 mg/L [S],0.25 mg/L [S],0.015 mg/L [S],0.015 mg/L [S],0.03 mg/L [S],0.12 mg/L [S]
"Candida albicans isolate 162 (Erg11p: K342R, Fur1p: WT, Tac1p: I558V,A377V,F189S,N174D,M170I,K87N)",0.03 mg/L [S],≤ 0.008 mg/L [S],≤ 0.015 mg/L [S],0.5 mg/L [S],0.5 mg/L [S],0.03 mg/L [S],≤ 0.008 mg/L [S],0.03 mg/L [S],≤ 0.06 mg/L [S]
"Candida albicans isolate 149 (Erg11p: WT, Fur1p: Q181*, Tac1p: M170V)",0.03 mg/L [S],≤ 0.008 mg/L [S],0.03 mg/L [S],0.5 mg/L [S],0.5 mg/L [S],0.015 mg/L [S],0.015 mg/L [S],0.03 mg/L [S],≤ 0.06 mg/L [S]
"Candida albicans isolate 45 (Erg11p: WT, Fur1p: WT, Tac1p: I558V,A377V,F189S,N174D,M170I,K87N)",0.03 mg/L [S],≤ 0.008 mg/L [S],0.03 mg/L [S],0.25 mg/L [S],0.5 mg/L [S],0.015 mg/L [S],0.015 mg/L [S],≤ 0.015 mg/L [S],≤ 0.06 mg/L [S]
"Candida albicans isolate 353 (Erg11p: E266D, Fur1p: WT, Tac1p: T885K,I558V,A430V,A377V,F189S,N174D,M170I,M170V,K87N)",0.03 mg/L [S],≤ 0.008 mg/L [S],≤ 0.015 mg/L [S],0.25 mg/L [S],0.5 mg/L [S],0.015 mg/L [S],≤ 0.008 mg/L [S],0.03 mg/L [S],≤ 0.06 mg/L [S]
"Candida albicans isolate 228 (Erg11p: K342R,E266D, Fur1p: WT, Tac1p: I558V,A377V,F189S,N174D,M170I,K87N)",0.03 mg/L [S],≥ 8 mg/L [R],0.12 mg/L [S],≥ 256 mg/L [R],0.5 mg/L [S],≥ 8 mg/L [R],0.015 mg/L [S],8 mg/L [R],≤ 0.06 mg/L [S]
